{"source": "patent US9422527B2", "about": "“Drug target site within gp120 of HIV” (priority 2011, dated 2016)", "target": "binding of gp120 to α4β7", "experiment": "ELISA assay of gp120 binding to α4β7", "conditions": "read-out: activity of inhibition of the binding of gp120 to α4β7, 1 μM gp120 and 1 μM α4β7", "source_text": "FIG. 36: ELISA Assay. A sandwich assay was developed to screen for compounds that inhibit the binding of a4b7 to gp120. Without inhibitors, gp120 and a4b7 bind and this complex can be identified by addition of a mouse anti-gp120 mAb (step 3). This a4b7·gp120·anti-gp120 mAb complex is then sequestered on the bottom surface of a 96 welled-plate coated with an anti-mouse secondary mAb (step 4). The complex is then detected by addition of a biotinylated primary mAb against a4b7 (step 5) and detected using an HRP-avidin (step 6). A positive binding event is identified by the presence of HPR activity within each well. The addition of an inhibitor (step 2) blocks the binding between gp120 and a4b7 leading to a lack or reduction of HRP activity as shown in steps 2-5 at the bottom of the figure. […]\nRecombinant human α4β7 integrin was purchased from R&D Systems (Catalog Number: 5397-A3). Larger quantities of the α4β7 integrin were by in house. […] The purity of each subunit was evaluated by SDS-PAGE analysis and both subunits were purified to over 98% purity using a SilverQuest kit (Invitrogen) for detection. […] The activity of the α4β7 integrin was determined by using the methods established by R&D Systems Inc., as given by measuring the ability of the immobilized α4β7 integrin to support the adhesion of VCAM-1 transfected Chinese hamster ovary (CHO) cells. […]", "data": [{"smiles": "O=C(O)C=C(C(=O)OC1C2COC(=O)c3cc(O)c(O)c(O)c3-c3c(cc(O)c(O)c3O)C(=O)OC1C(O)C(OC(=O)c1cc(O)c(O)c(O)c1)O2)C1c2c(cc(O)c(O)c2O)C(=O)OC1C(=O)O", "note": "(stereo not shown) [Repandusinic acid A]", "values": [{"measurement": "IC50", "value": "1.2 ± 0.1", "unit": "µM"}]}]}
